Test results reported in ChEMBL document CHEMBL1828615, “Synthesis of a series of 3,4-methanoarginines as side-chain conformationally restricted analogues of arginine” (Bioorg Med Chem, 2011).

Legend:
[1] = system: N=C(N)NCCC[C@H](N)C(=O)O; assay: (§1) Activity of rat nNOS by Michaelis-Menten equation analysis
[2] = system: N=C(N)NC[C@H]1C[C@@H]1[C@H](N)C(=O)O; assay: as §1
[3] = system: N=C(N)NC[C@H]1C[C@H]1[C@H](N)C(=O)O; assay: as §1
[4] = system: N=C(N)NCCC[C@H](N)C(=O)O; assay: (§2) Ratio of Kcat to Km for rat nNOS by Michaelis-Menten equation analysis
[5] = system: N=C(N)NC[C@H]1C[C@@H]1[C@H](N)C(=O)O; assay: as §2
[6] = system: N=C(N)NC[C@H]1C[C@H]1[C@H](N)C(=O)O; assay: as §2

Substance “Nitric oxide synthase 1 (Rattus norvegicus) (chain not printed)” has a Km [1] of 2.7 µM, a Km [2] of 7.6 µM and a Km [3] of 256 µM. For the same substance, the kcat/Km [4] was 180000 M⁻¹ s⁻¹, the kcat/Km [5] was 317000 M⁻¹ s⁻¹ and the kcat/Km [6] was 8600 M⁻¹ s⁻¹.
